Data published in PubChem BioAssay AID1508624 (National Center for Advancing Translational Sciences (NCATS), 2021).
The campaign covered roughly 48,000 compounds. About 120 (0.25%) were called active. Roughly 4% stayed inconclusive and do not appear here. The call rests on the fitted dose curve; in most records, active means well fitted activation curve with a large enough effect; inconclusive means small, poorly fitted or top-dose-only effect, or another doubt; inactive means no such curve, though single readings can be large or run the other way. The list shows a part of the results.

Assay: Primary qHTS for Identification of Small Molecule Activators of Huntingtin-Antisense Promoter Activity; further: nearly all actives have a fitted effect of over 55% in size
Settings: HEK293 HTT-AS promoter firefly luciferase reporter (activity 0% = vehicle and -100% = no light), 24 h; series mostly up to 57.5 µM; activity change, positive = activation: at the top concentration
Procedure, shortened: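 Firefly luciferase signal from promoter-reporter HEK293 cells was scaled between vehicle (0%) and zero RLU (-100%). Compounds were tested at final concentrations of up to 57.5 uM over 24 h at 37 degrees C. PTC124 at 50 uM final served as control inhibitor.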

Activity change, positive = activation, inactive:
COc1cccc(CNC(=O)CN2CCCN(Cc3ccccc3)S2(=O)=O)c1 -14.1%
Cc1ccc2c(c1)cc1c(=O)n(CC(=O)NC(C)CCc3ccccc3)nc(C)n12 (stereo not given) -0.95%
O=C(NCc1cccs1)c1ccc(CSc2nc3cccnc3n2Cc2ccc(F)cc2)cc1 -23.9%
Cn1c2c(c(=O)n(C)c1=O)C(c1ccccc1[N+](=O)[O-])CC(=O)N2 (stereo not given) -9.54%
COc1ccc(-c2nn(-c3ccc(F)cc3)c3c2cnc2cc4c(cc23)OCO4)cc1 -3.15%
COc1ccccc1CNc1ccc(-c2nc(-c3ccccc3C)no2)cc1[N+](=O)[O-] -6.74%
CCc1ccccc1NC(=O)CSc1nc2n[nH]c(C)c2c(=N)n1-c1cccc(C)c1 -41.6%
Cc1cc(C)cc(NC(=O)C2CCN(C(=O)c3cnn(-c4ccccc4)c3-n3cccc3)CC2)c1 -38.5%
CC1CCn2c(nc3cc(C(=O)NCc4ccc(F)cc4)ccc32)C1 (stereo not given) 0.753%
CCC(C(=O)Nc1ccccc1)n1nc(-c2cc(C)ccc2C)ccc1=O (stereo not given) -27.8%
Cc1cccc(NC(=O)C2CCCN(S(=O)(=O)c3c(C)n[nH]c3C)C2)c1 (stereo not given) -20.4%
CCN1C(=O)N(c2ccc(C(C)=O)cc2)S(=O)(=O)c2ccccc21 -6.97%
CSc1ccc(CCNC(=O)Cn2ncn3c(cc4ccccc43)c2=O)cc1 0.0451%
Cc1ccc(CN2C(=O)C(=O)c3cc(Br)cc(C)c32)cc1 -33.3%
Cc1ccccc1Nc1c(-c2cccnc2)nc2cccc(C)n12 -19.2%
CCOc1ccc(-n2c(=O)c3c(C)c(C)sc3n(CC(=O)Nc3ccc(CC)cc3)c2=O)cc1 -19.5%
CCN(C(=O)c1cc2c(=O)n(CC)c3ccccc3c2s1)c1cccc(C(F)(F)F)c1 -12.5%
Cn1nc(-c2ccc(OCC(=O)Nc3ccc(Cl)cc3)cc2)c2ccccc2c1=O -22.9%
COc1ccc(Br)cc1CNC(=O)c1cnc2sc(N3CCCCCC3)nn2c1=O -36.6%
COc1cccc(NC(=O)Cn2c(=O)ccc3cc(S(=O)(=O)N4CCC(C)CC4)ccc32)c1 -39.4%
COc1ccc(Cl)cc1S(=O)(=O)N1CCN(CC(=O)Nc2ccccc2C(F)(F)F)CC1 -27%
CCOc1ccc(-n2nc3ccc(NC(=O)c4cccc(F)c4)cc3n2)cc1 -20.1%
CCSc1nc2c([nH]c3ccccc32)c(=O)n1-c1cccc(OC)c1 -33.4%
CCOc1ccc(-c2nnc(SCC(=O)NC(C)CC)nc2-c2ccc(OCC)c(OC)c2)cc1OC (stereo not given) 8.77%
CC(=O)Nc1nonc1-c1nnc(SCC(=O)Nc2cccc(C)c2C)n1-c1ccccc1 -2.49%
COc1cc(C(=O)Nc2cccc(OCc3cc(=O)n4cc(C)sc4n3)c2)cc(OC)c1OC 0.645%
COc1ccc(Cn2cc(C(=O)c3ccc(F)cc3)c(=O)c3cc4c(cc32)OCCO4)cc1 -21.8%
Cc1nn(C)c(C)c1CCNC(=O)Nc1cccc(Cl)c1C 3.69%
COc1ccc(-c2nc3ccccc3o2)cc1NC(=O)c1ccc(-c2ccc(Br)cc2)o1 4.46%
COc1ccc(-c2nc(CCNC(=O)c3c(F)cccc3Cl)cs2)cc1 -17%
CC1CCN(C(=O)Cn2cc(SCC(=O)Nc3ccccc3C(F)(F)F)c3ccccc32)CC1 -47.5%
CCCCNc1ccc(-c2nc(-c3ccncc3)no2)cc1[N+](=O)[O-] 0.126%
CCCCc1nn2c(=O)cc(COC(=O)c3ccco3)nc2s1 11.1%
CCOc1ccc(-n2cc(-c3ccccc3)c3c(N4CCC(C)CC4)ncnc32)cc1 -20.5%
COc1ccc(-c2nnc(Nc3ccc(OC)c(C(N)=O)c3)c3ccccc23)cc1 -14%
CCS(=O)(=O)c1nc(S(=O)(=O)c2ccc(C)cc2)c(NC(C)c2ccccc2)s1 (stereo not given) -41.5%
Cc1ccc(S(=O)(=O)c2nc(-c3ccc(F)cc3)oc2SCC(=O)c2ccccc2)cc1 -17.1%
CCc1ccc2oc(-c3cccc(NC(=O)C(C)(C)Oc4ccc(Br)cc4)c3)nc2c1 13.6%
Cc1cc(C)cc(Nc2ncnc3onc(-c4ccc(F)cc4)c23)c1 -30.2%
O=C(c1ccc2c(c1)CCCC2)N1CCN(c2nc3ccc(F)cc3s2)CC1 -14.3%
CCOc1ccc(CNC(=O)c2cc3c(s2)-c2ccccc2OC3)cc1 -2.02%
COc1cc(NC(=O)NC(C)c2c(-n3cccc3)sc3c2CCN(C)C3)cc(OC)c1 (stereo not given) -11.2%
COc1cccc(-n2c(SCC(=O)N3CCCc4ccccc43)nc3c([nH]c4ccccc43)c2=O)c1 -28.8%
CCc1ccc(S(=O)(=O)NCc2nc3cccnc3n2Cc2ccccc2Cl)cc1 -21.7%
CCCOc1ccc(CNC(=O)Cn2cc3c(n2)-c2c(oc(C(=O)N4CCOCC4)c2C)CC3)cc1 -34.9%
COc1ccc(Cl)cc1NC(=O)Cn1c(=O)n(CCCC(=O)NCCc2ccc(OC)c(OC)c2)c(=O)c2ccccc21 -20.8%
O=C(CCSCc1cccc(F)c1)NCc1ccccc1 -4.17%
O=C(CSc1cn(CCNC(=O)c2ccccc2F)c2ccccc12)Nc1ccc(F)cc1 -16.8%
COc1cccc(N2C(=O)CSC23C(=O)N(CC(=O)Nc2cccc(Cl)c2)c2ccccc23)c1 (stereo not given) -21.7%
CN1CC(=O)N2C(Cc3c([nH]c4ccccc34)[C@H]2c2ccc3c(c2)OCO3)C1=O (stereo not given in full) -32%
COc1cc(CN(C(=O)COc2ccccc2Cl)c2ccccn2)cc(OC)c1OC -13.7%
COc1cccc(-n2c(-c3ccco3)nc3c(cnn3-c3ccc(Cl)cc3)c2=O)c1 -31.9%
CCOc1ccc(-n2c(=O)c3c4c(sc3n(CC(=O)NC(C)CC)c2=O)CCC4)cc1 (stereo not given) 3.94%
O=S(=O)(c1ccc(Cl)cc1)c1nnn2c1nc(NCc1cccs1)c1sccc12 -36.7%
CN(C)S(=O)(=O)N(CC(=O)NCCSCc1cccc(Cl)c1)c1ccccc1 -17.4%
CCOC(=O)c1ccc(N2C(=O)c3n[nH]c(-c4cccs4)c3C2c2cccc(OC)c2)cc1 (stereo not given) -48.9%
CCC(=O)Nc1ccc2nc(SCc3ccccc3)sc2c1 6.57%
CCC(CC)C(=O)N1CCc2cc(OC)c(OC)cc2C1COc1ccc(C(=O)OC)cc1 (stereo not given) -26.9%
COc1ccc(C)cc1NC(=O)CSc1nc(=O)[nH]c2c1CCCC2 -18.1%
CCC1CN(S(=O)(=O)c2ccc3c(c2)NC(=O)CC(=O)N3)c2cc(Cl)ccc2O1 (stereo not given) -24.5%
